Assay results published in PubChem BioAssay AID588591 (National Center for Advancing Translational Sciences (NCATS), 2011).
Hit rate of the full screen: of about 390,000 compounds, about 4,700 (1.2%) were called active. Inconclusive means that the source gave no clear call. Such entries were picked first, then a sample of the others. The call rests on the fitted dose curve; in most records, active means well fitted inhibition curve with a large enough effect; inconclusive means small, poorly fitted or top-dose-only effect, or another doubt; inactive means no such curve, though single readings can be large or run the other way. Where the call is inconclusive, the potency comes from a doubtful curve fit.

Target: DNA polymerase eta (Homo sapiens) (UniProt Q9Y253)
Chain of UniProt Q9Y253 (Q9Y253 whole entry, looked up): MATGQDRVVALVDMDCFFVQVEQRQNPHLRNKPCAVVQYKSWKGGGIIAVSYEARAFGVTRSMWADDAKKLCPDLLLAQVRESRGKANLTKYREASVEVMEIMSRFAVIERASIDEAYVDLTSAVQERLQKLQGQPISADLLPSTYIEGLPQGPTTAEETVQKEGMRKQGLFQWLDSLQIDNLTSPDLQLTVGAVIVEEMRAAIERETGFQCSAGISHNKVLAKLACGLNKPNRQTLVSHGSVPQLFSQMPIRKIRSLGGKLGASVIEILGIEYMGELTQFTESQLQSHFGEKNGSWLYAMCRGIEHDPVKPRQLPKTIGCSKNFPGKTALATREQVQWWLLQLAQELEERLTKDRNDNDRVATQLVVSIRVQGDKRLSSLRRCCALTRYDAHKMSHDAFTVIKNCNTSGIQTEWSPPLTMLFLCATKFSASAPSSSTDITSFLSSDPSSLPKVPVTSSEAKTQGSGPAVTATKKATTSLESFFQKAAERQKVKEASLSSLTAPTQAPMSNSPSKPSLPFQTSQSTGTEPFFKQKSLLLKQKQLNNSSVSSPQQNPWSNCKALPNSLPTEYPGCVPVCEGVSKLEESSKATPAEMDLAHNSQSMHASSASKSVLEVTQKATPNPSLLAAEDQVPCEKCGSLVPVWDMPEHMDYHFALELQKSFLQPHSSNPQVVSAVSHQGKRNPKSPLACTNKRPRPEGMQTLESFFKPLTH
Assay: qHTS for Inhibitors of Polymerase Eta
Details: recombinant Pol eta, fluorescent DNA replication assay; series mostly up to 114 µM; activity change, negative = inhibition: at the top concentration
Outline: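 Pol eta (10 nM) was preincubated with compounds for 15 min at room temperature, after which fluorescent replication substrate (50 nM final) was added to start the reaction. Fluorescence was read kinetically at 0 and 10 min.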
On the % scale 0 is the no-effect control and ±100 the full control effect; potency means the concentration at half of the fitted maximal effect; tags describe the fitted curve by direction and shape.

Structure (SMILES)	activity change, negative = inhibition	Potency
Nc1nc(Nc2cccc(Cl)c2)nc(NCCO)c1[N+](=O)[O-]	inactive: -34.1%	–
O=C(c1c[nH]c(C(=O)C(Cl)(Cl)Cl)c1)c1ccccc1F	–	inconclusive: 25.1 µM [inhibitor, partial curve, poor fit]
Fc1ccc(Nc2nc(-c3cccnc3)cs2)cc1	–	inconclusive: 100 µM [inhibitor, partial curve, poor fit]
CC(C)(C)NC(=O)CN(C(=O)CCC(=O)Nc1nccs1)c1cccc(C(F)(F)F)c1	inactive: -8.81%	–
COc1ccc(CN2CCSCC2)cc1C	inactive: 1.31%	–
COc1ccc(C(=O)COC(=O)c2cnc(C)cn2)c(OC)c1	–	inconclusive: 39.8 µM [inhibitor, partial curve, poor fit]
CCOC(=O)/C(C#N)=C/c1ccc(OCC(=O)Nc2ccc(OC)cc2)c(OC)c1	–	inconclusive: 5.01 µM [inhibitor, full curve, poor fit]
Cc1ccc(OCC(=O)Nc2cccc(C(=O)OCc3cc(=O)n4cc(C)sc4n3)c2)cc1	inactive: -18.5%	–
COc1ccc(C(=O)CSc2nnc(-c3ccco3)c(-c3ccco3)n2)cc1	–	active: 12.6 µM
O=C(NC1CCC(O)CC1)c1cc(-c2ccco2)nc2ccccc12 (stereo unspecified)	–	active: 25.1 µM
Cc1cc(N=Nc2c(O)c3ccccc3[nH]c2=O)ccc1N=Nc1ccc(C(=O)N(C)C)cc1	–	inconclusive: 14.1 µM [inhibitor, full curve, poor fit]
COc1ccc(CCNC(=O)Cn2c(=O)nc(-c3ccccc3F)c3cc(Cl)ccc32)cc1OC	inactive: -12.4%	–
O=C(O)c1cc(N/N=C/c2cccc3ccccc23)ccc1Cl	–	inconclusive: 56.2 µM [inhibitor, partial curve, poor fit]
COc1ccc(Cl)cc1NC(=O)COC(=O)CC(C)(C)CC1=NS(=O)(=O)c2ccccc2N1	inactive: -16.9%	–
COc1ccccc1CNC(=O)C(=O)NCCC1CCCCN1S(=O)(=O)c1ccc(C)cc1 (stereo unspecified)	inactive: -19.8%	–
O=c1cc2nc(-c3ccccc3F)nc(SCc3ccc(Br)cc3)n2[nH]1	–	inconclusive: 89.1 µM [inhibitor, single point]
COc1ccc(C(C)=NNC(=O)c2cccc(S(=O)(=O)N3CCCC3)c2)cc1	inactive: -1.82%	–
O=C1CC2(CCN(C(=O)COc3ccc(Cl)cc3)CC2)Oc2ccccc21	–	inconclusive: 3.16 µM [inhibitor, partial curve, poor fit]
Cc1cccc(C)c1OCc1cc(C(=O)N2CC3C[C@@H]4CC2C[C@H](C3)C4)no1	–	inconclusive: 79.4 µM [inhibitor, partial curve, poor fit]
COc1ccc(-c2nn(-c3ccccc3)cc2/C=C\C(=O)Nc2ccc(C(=O)O)cc2)cc1	–	inconclusive: 22.4 µM [inhibitor, full curve, poor fit]
O=c1ccc2ccc(O)c(O)c2o1	–	inconclusive: 22.4 µM [inhibitor, partial curve, poor fit]
COc1cccc(/C=N/NC(=S)NC2CC3CCC2C3)c1OC (stereo unspecified)	inactive: -16%	–

Structure (SMILES)	activity change, negative = inhibition	Potency
O=C(CSc1nc2ccccc2o1)N/N=C/c1ccc(O)c(O)c1	–	active: 3.55 µM
N#Cc1cc(C(=O)c2cc(F)ccc2O)cn(-c2nccs2)c1=O	–	active: 28.2 µM
Nc1cc(=O)[nH]c(SCC(=O)N2N=C(c3ccc(Cl)cc3)CC2c2ccco2)n1 (stereo unspecified)	–	inconclusive: 56.2 µM [inhibitor, partial curve, poor fit]
O=C(COC(=O)c1ccc([N+](=O)[O-])s1)Nc1ccc(Cl)cn1	inactive: -14.2%	–
Cc1cccc2cc(/C=N/Nc3ccc(C(=O)O)cc3)c(Cl)nc12	–	inconclusive: 56.2 µM [inhibitor, partial curve, poor fit]
Cc1c(C(=O)N2CCCC2)sc(NC(=O)c2ccc(Cl)cc2)c1C#N	inactive: 4.7%	–
Oc1ccccc1-c1nc(/C=C/c2ccccc2)nn1-c1ccccc1	–	inconclusive: 70.8 µM [inhibitor, partial curve, poor fit]
CC(NC(=O)/C=C/c1cnc2ccccc2n1)C12CC3CC(CC(C3)C1)C2 (stereo unspecified)	–	inconclusive: 12.6 µM [inhibitor, partial curve, poor fit]
Cn1c(CC2C(=O)Nc3ccc(Br)cc32)nc2ccccc2c1=O (stereo unspecified)	–	inconclusive: 20 µM [inhibitor, partial curve, poor fit]
Cn1ccc(=Nc2ccc(NC(=O)c3ccc(N=c4ccn(C)c5ccc([N+](=O)[O-])cc45)cc3)cc2)cc1	–	active: 5.62 µM
CCCOc1ccc(N2C(=O)CC(NNC(=O)c3ccc(COc4ccccc4)o3)C2=O)cc1 (stereo unspecified)	–	inconclusive: 20 µM [inhibitor, partial curve, poor fit]
c1ccc(CCc2nn3c(Cn4nnc5ccccc54)nnc3s2)cc1	–	inconclusive: 28.2 µM [inhibitor, single point]
O=C(COC(=O)CCCN1C(=O)c2ccccc2C1=O)Nc1ncc(Cl)cc1Cl	–	inconclusive: 25.1 µM [inhibitor, full curve, poor fit]
O=C(NNC(=S)Nc1ccccc1)c1ccco1	inactive: -8.33%	–
CC(C)(C)c1ccc(NC(=O)C2=CC=CN3CCS(=O)(=O)N=C23)cc1	inactive: -1.62%	–
CC(=C\c1ccco1)/C=C(\C#N)C(=O)NCCc1c[nH]c2ccccc12	–	inconclusive: 28.2 µM [inhibitor, partial curve]
O=C(O)CN1C(=O)/C(=C\c2cccc(OCc3ccc(Cl)cc3Cl)c2)SC1=S	–	active: 79.4 µM
Cc1cc(/C=C2\SC(=Nc3ccccc3)NC2=O)c(C)n1-c1ccc(S(N)(=O)=O)cc1	–	inconclusive: 12.6 µM [inhibitor, partial curve, poor fit]
Cc1nc2ccc(NC(=O)N3CCOCC3)cc2nc1C	inactive: -8.7%	–
O=C(NCCO)c1cc(-c2cc(C(=O)NCCO)c3ccccc3n2)nc2ccccc12	–	inconclusive: 17.8 µM [inhibitor, full curve]
COc1ccc(-c2oc3ncnc(NCCCO)c3c2-c2ccc(OC)cc2)cc1	–	inconclusive: 25.1 µM [inhibitor, partial curve, poor fit]
CCCCc1ccc(NC(=O)Nc2cc(C)nn2C)cc1	–	inconclusive: 79.4 µM [inhibitor, partial curve, poor fit]

Structure (SMILES)	activity change, negative = inhibition	Potency
O=C(c1ccccc1Cc1ccccc1)N1CCN(S(=O)(=O)c2ccccc2Br)CC1	–	inconclusive: 79.4 µM [inhibitor, partial curve, poor fit]
N#Cc1nc(Cc2cccc3ccccc23)oc1NCc1ccc2c(c1)OCO2	–	inconclusive: 39.8 µM [inhibitor, single point]
CCCCCCn1c(=O)n2n(c1=O)C[C@]1(OC(=O)Nc3cccs3)CN(S(=O)(=O)c3ccc(C)cc3)C[C@]1(O)C2	–	inconclusive: 31.6 µM [inhibitor, partial curve, poor fit]
O=C(Nc1nc(-c2ccco2)c(-c2ccco2)s1)c1cnccn1	–	inconclusive: 2.82 µM [inhibitor, full curve, poor fit]
Cc1c(N=Cc2cc3c(cc2[N+](=O)[O-])OCO3)cccc1[N+](=O)[O-]	–	inconclusive: 50.1 µM [inhibitor, partial curve]
O=C(O)c1c2c(nc3ccc(S(=O)(=O)N4CCC(C(=O)NC5CCCCCC5)CC4)cc13)CCCC2	–	active: 20 µM
CC1=NN(c2ccc(S(=O)(=O)O)cc2Cl)C(=O)C1	–	inconclusive: 89.1 µM [inhibitor, single point]
O=C(COc1ccccc1Br)Nc1ccc2c(c1)OCCCO2	inactive: -14.1%	–
Cc1ccc(OC(=O)c2ccc3c(=O)n4c(nc3c2)CCC4)cc1	–	inconclusive: 22.4 µM [inhibitor, single point]
C=C/C(C)=C/CC1C(=C)CCC2C(C)(C(=O)O)CCCC12C (stereo unspecified)	–	active: 7.08 µM
COCCNC(=O)/C(C#N)=C/c1cc(Br)c(O)c(OC)c1	–	inconclusive: 3.55 µM [inhibitor, partial curve, poor fit]
Cc1noc(C)c1NC(=O)N(C)C[C@H]1Oc2ccc(NC(=O)CCC(F)(F)F)cc2C(=O)N([C@H](C)CO)C[C@@H]1C	inactive: -11.6%	–
Fc1ccccc1Cc1nnc2n1N=C(c1ccc(Cl)cc1)CS2	–	inconclusive: 20 µM [inhibitor, partial curve, poor fit]
CC(=O)C(Sc1nc(-c2ccccc2Cl)nc2c1c(=O)n(C)c(=O)n2C)C(=O)N(C)C (stereo unspecified)	inactive: -13.6%	–
Cc1cc(C)nc(NS(=O)(=O)c2ccc(N3C(=O)C4CC=C(Cl)CC4C3=O)cc2)n1 (stereo unspecified)	inactive: -20.5%	–
Cc1ccc(CN2CC(C(=O)NCCCSc3ccccc3)CC2=O)cc1 (stereo unspecified)	–	inconclusive: 112 µM [inhibitor, partial curve, poor fit]
COC(=O)c1cc2n(n1)CCN(Cc1ccc(C)cc1)C2=O	–	inconclusive: 79.4 µM [inhibitor, partial curve, poor fit]
COc1cc(NS(=O)(=O)c2ccc(Nc3nc(-c4ccccc4)cs3)cc2)nc(OC)n1	–	inconclusive: 89.1 µM [inhibitor, single point]
CC(=O)c1ccc(S(=O)(=O)Nc2cccc(-c3ccc(N4CCCC4)nn3)c2)cc1	–	inconclusive: 100 µM [inhibitor, single point]
CS(=O)(=O)c1cccc(-c2nnc(NC(=O)c3ccc4ncsc4c3)o2)c1	–	inconclusive: 89.1 µM [inhibitor, single point]
O=C(O)c1ccccc1NS(=O)(=O)c1ccc(NN=Cc2cccc(Cl)c2)c([N+](=O)[O-])c1	–	active: 20 µM
NC(=O)C[C@H]1NC(=O)[C@H](CCC(=O)O)NC(=O)c2cc([N+](=O)[O-])cc(I)c2NCCC[C@@H](C(N)=O)NC1=O	–	active: 35.5 µM
